In PMC4336329 (PLoS ONE, 2015):
In all, about 310,000 compounds went through this assay and about 14,000 (4.5%) showed an effect of 50% or more. The effect is printed as a negative number. The list shows a part of the results.

biological target: human ether-à-go-go-related gene (hERG) potassium channel (human, UniProt Q12809); experiment: primary screen, population patch clamp on CHO cells stably expressing hERG
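Further: peak tail current of the secondary pulse compared with the same well before compound.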

Sequence of human ether-à-go-go-related gene (hERG) potassium channel (Q12809 whole entry, looked up): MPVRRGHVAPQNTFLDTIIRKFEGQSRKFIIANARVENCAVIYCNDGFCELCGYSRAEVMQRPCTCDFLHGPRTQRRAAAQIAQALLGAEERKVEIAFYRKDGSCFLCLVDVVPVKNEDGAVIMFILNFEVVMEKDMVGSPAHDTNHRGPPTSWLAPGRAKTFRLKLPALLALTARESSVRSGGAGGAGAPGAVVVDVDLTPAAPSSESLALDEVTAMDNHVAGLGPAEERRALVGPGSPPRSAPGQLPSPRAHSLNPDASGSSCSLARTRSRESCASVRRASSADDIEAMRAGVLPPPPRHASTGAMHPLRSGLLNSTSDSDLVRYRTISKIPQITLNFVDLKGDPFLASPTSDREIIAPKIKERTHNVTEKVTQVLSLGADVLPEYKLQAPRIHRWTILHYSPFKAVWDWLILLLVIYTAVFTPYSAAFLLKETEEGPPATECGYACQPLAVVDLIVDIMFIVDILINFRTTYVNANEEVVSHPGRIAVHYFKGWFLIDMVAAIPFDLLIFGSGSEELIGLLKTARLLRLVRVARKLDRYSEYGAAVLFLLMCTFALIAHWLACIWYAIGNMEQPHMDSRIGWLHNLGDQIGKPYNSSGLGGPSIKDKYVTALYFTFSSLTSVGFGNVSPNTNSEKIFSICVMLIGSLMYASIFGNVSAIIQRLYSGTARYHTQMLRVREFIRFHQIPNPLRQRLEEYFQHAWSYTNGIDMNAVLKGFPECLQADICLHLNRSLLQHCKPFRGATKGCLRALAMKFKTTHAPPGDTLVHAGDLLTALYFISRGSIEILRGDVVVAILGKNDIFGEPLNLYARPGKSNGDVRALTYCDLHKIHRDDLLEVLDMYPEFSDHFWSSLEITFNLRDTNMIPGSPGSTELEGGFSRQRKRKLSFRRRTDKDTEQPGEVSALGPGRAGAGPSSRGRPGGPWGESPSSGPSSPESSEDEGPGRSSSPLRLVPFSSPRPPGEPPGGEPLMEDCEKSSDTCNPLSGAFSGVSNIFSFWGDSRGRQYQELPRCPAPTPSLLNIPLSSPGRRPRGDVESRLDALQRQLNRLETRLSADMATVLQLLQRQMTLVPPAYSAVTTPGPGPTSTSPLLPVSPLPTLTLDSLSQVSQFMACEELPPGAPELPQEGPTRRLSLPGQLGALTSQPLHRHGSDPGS

In order of rising “hERG current change (%, negative = inhibition) at 10uM” value:
1. O=C(c1ccc(-n2cnnn2)cc1)N1CCN(C(c2ccccc2)c2ccccc2)CC1  -64.7%
2. CCNC(=S)NC1CC2CCCC(C1)N2CCc1ccccc1 (centres unmarked)  -48.7%
3. COc1ccc(Cl)cc1NC(=O)CN(C)C(=O)C1CCN(C(=O)Nc2ccccc2)CC1  -46.9%
4. CCc1ccc(Nc2n[n+](-c3ccccc3)c(-c3ccc(OC)c(Br)c3)s2)cc1.[Cl-]  -44%
5. C/C(CCN1CCCCc2nc(C)c(C)cc21)=N\O[C@H](C)c1cn([C@H](CO)Cc2ccccc2)nn1  -41.8%
6. COc1cc(NC(=O)[C@@H](NC(=O)c2ccco2)C(C)C)c(OC)cc1NC(=O)c1ccccc1  -36%
7. C=CCn1c(Cc2ccccc2)nc2c(cnn2-c2ccccc2)c1=O  -34.8%
8. CCOc1ccc(S(=O)(=O)NCCC(=O)OCN2C(=O)c3ccccc3C2=O)cc1  -28.4%
9. O=C(Nc1ccc2c(c1)OCCO2)c1cccc(S(=O)(=O)N2CCCCC2)c1  -25.4%
10. CCc1ccccc1S(=O)(=O)Cc1ccc(C(=O)NCC2CCCO2)o1 (centres unmarked)  -23%
11. Cc1cc(C)c(C#N)c(Sc2ccc(N)cc2)n1  -20.4%
12. Cc1ccc(C)c(OCCCC(=O)Nc2ccccc2C(N)=O)c1  -18.8%
13. COc1ccccc1C(=O)NC(CCSC)C(=O)OCC(=O)NC(=O)NCc1ccco1 (centres unmarked)  -17.7%
14. O=C(Nc1ccccc1)C1CCN(S(=O)(=O)c2cccs2)CC1  -16.4%
15. CC1=C(C(=O)OCc2ccccc2)C(c2ccccc2Cl)NC(=O)N1CCCCCC(=O)O (centres unmarked)  -12.4%
16. CSCCC(NC(=O)c1ccc(Cl)cc1)C(=O)NC(C)(C)C (centres unmarked)  -12.2%
17. CN(C)S(=O)(=O)c1ccc(C(=O)NCC2(N3CCOCC3)CCCCC2)cc1  -9.69%
18. Cc1nc(N2CCOCC2)c2oc3ccccc3c2n1  -9.35%
19. CCN(CC(=O)NCc1cccs1)CC(=O)Nc1ccccc1C  -7.65%
20. COC(=O)C1=C(C)NC(C)=C(C(=O)OCC2CCCO2)C1c1cccc(Br)c1 (centres unmarked)  -7.03%
21. Cc1ccc(-c2cc(C(=O)N3CCOCC3)c3cc(C)ccc3n2)cc1  -4.82%
22. CC(Nc1ccc(Br)cc1)C(=O)N/N=C/c1ccccc1OCc1ccccc1 (centres unmarked)  -3.72%
23. N#Cc1c(SCC(=O)Nc2nccs2)nc2c(c1-c1ccco1)CCCC2  -3.63%
24. Cc1ccc(S(=O)(=O)N2CCOCC2)cc1NC(=O)CNCc1ccccn1.O=C(O)C(=O)O  -3.51%
25. Cc1ccc(C)c(NC(=O)COC(=O)CSc2ccccc2)c1  -2.49%
26. Cc1ccc(F)cc1NC(=O)C1CCCN(c2ncccn2)C1 (centres unmarked)  -1.96%
27. Cc1nc2ccc3nc(NC(=O)c4ccco4)sc3c2s1  -1.16%
28. O=C(O)CCCn1c(=O)c2cccn2c2ccc(F)cc21  -0.988%
29. Cc1ccc(S(=O)(=O)NCC(=O)OCC(=O)c2cccs2)cc1  0.259%
30. Cc1c(F)cccc1NC(=O)CSCC(=O)Nc1ccccc1  1.98%
31. CCc1ccccc1N(CC)C(=O)c1cn(C)c(=O)c2cc(OC)c(OC)cc12  2.87%
32. COC(=O)C(NC(=O)C(C)Oc1ccccc1)C(C)C (centres unmarked)  3.92%
33. CCCCC(=O)Nc1cccc(NC(=O)CC)c1  3.94%
34. Cc1ccc(NC(=O)C(C)NC(=O)OCc2ccccc2)cc1C (centres unmarked)  4.66%
35. O=C(NCc1ccco1)c1ccc(C(F)(F)F)cc1  5.37%
36. O=C(NCc1n[nH]c(=S)n1-c1ccccc1)c1ccc(S(=O)(=O)N2CCOCC2)cc1  6.51%
37. Cn1cccc1P(=O)(c1cccn1C)c1cccn1C  7.17%
38. Cc1ccc(N2C(=O)C3N=NN(CC(=O)N4N=C(c5cccc6ccccc56)CC4c4ccccc4)C3C2=O)cc1 (centres unmarked)  7.36%
39. COc1ccc(C(C)NC(=S)NC2CCCCC2)cc1OC (centres unmarked)  7.6%
40. CCN(CC)S(=O)(=O)c1ccc(C2=NOC3(C2)N(C)c2ccccc2C3(C)C)cc1 (centres unmarked)  8.84%
41. COc1ccc(C(F)(F)F)cc1N/C=C/c1nnnn1-c1ccc(C)cc1  9.33%
42. O=C(Nc1cccc(C(F)(F)F)c1)Oc1ccc(Cl)c2cccnc12  9.96%
43. CCC1CN(C(=O)Nc2ccc(C)cc2)c2cc(C)ccc2O1 (centres unmarked)  10%
44. COc1ccc(-c2nc(=S)n3ccsc3n2)cc1OC  11.9%
45. Cc1cc(C)c2nc(SC(C)C(=O)NCC(=O)Nc3ccc(F)c(F)c3F)cc(C)c2c1 (centres unmarked)  12.1%
46. CC1(CCl)N([O-])C2=C(CCCC2)[N+]1=O (centres unmarked)  12.3%
47. CCCC1Cc2[nH]c(=O)c(C#N)cc2CO1 (centres unmarked)  12.5%
48. O=C1CC(C(=O)Nc2cccc3ccccc23)C2(CCCC2)O1 (centres unmarked)  13.5%
49. O=C(O)C1CCN(S(=O)(=O)c2ccc(N3CCOCC3)c([N+](=O)[O-])c2)CC1  14.7%
50. CCOc1ccc(NC(=O)C2CCCN(S(=O)(=O)c3ccc4[nH]c(=O)ccc4c3)C2)cc1 (centres unmarked)  15.7%
51. Cc1ccc(NC(=O)C(=O)NC(C)C2COc3ccccc3O2)cc1 (centres unmarked)  15.8%
52. COC(=O)c1cccc(NC(=S)Nc2cc(Cl)ccc2OC)c1  18.7%
53. N#Cc1c(C(F)(F)F)cc(C2CC2)[nH]c1=O  19.7%
54. Cc1cc(/C=C2\C(=O)NC(=O)N(c3ccccc3F)C2=O)c(C)n1-c1cc(C(=O)O)cc(C(=O)O)c1  23.5%
55. COc1ccc(S(=O)(=O)CC(O)CN2CCCC2=O)cc1 (centres unmarked)  40.3%
56. CCOC(=O)N1CCC(c2cc(=O)n(-c3ccccc3)[nH]2)CC1  49.6%
